# Measurements published in PubChem BioAssay AID1345082 (National Center for Advancing Translational Sciences (NCATS), 2018).
# Out of some 94,000 compounds screened, about 4,000 (4.3%) were called active. The inconclusive results got no clear call from the source; some entries with a clear call stand among them for comparison. Calls follow the shape of the dose curve; as a rule, active = well fitted inhibition curve with a large enough effect; inconclusive = small, poorly fitted or top-dose-only effect; inactive = no such curve, though single readings can be large or run the other way. Potencies of inconclusive entries are doubtful fits and often do not repeat.
# Test: Cytotoxic Profiling in NIH 3T3 Cell Line of Diverse Libraries Using Quantitative High-Throughput Screening; also: nearly all actives have a fitted effect of over 55% in size
# Conditions: NIH 3T3 viability, CellTiter-Glo ATP luminescence, 48-72 h; activity change, negative = cytotoxicity: at 96.7 µM (top of the series) unless noted; series mostly up to 96.7 µM
# Method in brief: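 Cells were seeded at 400 per well, treated with pin-transferred compound, and kept 48 or 72 hr at 37 °C before CellTiter-Glo addition and luminescence imaging of cellular ATP.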
# % is scaled to controls: 0 for no effect and ±100 for the full control effect; potency is read from the fitted curve at half-maximal effect; tags tell the direction and shape of the fitted curve.
SMILES,Potency,outcome,"activity change, negative = cytotoxicity"
Cc1ccc(C)c(CN2CCn3c(nn(CCCOc4ccc(F)cc4)c3=O)C2=O)c1,"inconclusive: 44.7 µM [inhibitor, partial curve, poor fit]",,
COc1cccc(CNC(=O)c2cn3cc(-c4cccc(OC)c4)sc3n2)c1,"inconclusive: 44.7 µM [inhibitor, partial curve, poor fit]",,
CC(=O)NC[C@H]1OC[C@@H](NC2CCC2)[C@@H]1O,,inactive [at 174 µM],
COc1ccc(-c2nc(C)nc3c2CN(C(=O)Nc2ccc(Cl)cc2)CC3)cc1,"inconclusive: 70.8 µM [inhibitor, partial curve, poor fit]",,
Cn1c(CNC(=O)C2Cn3cccc3C(=O)N2Cc2cccnc2)nc2ccccc21 (stereo not drawn),"inconclusive: 15.8 µM [inhibitor, full curve, poor fit]",,
CCn1c2c(c(=O)n1Cc1ccccc1)CCN(C(=O)c1cccnc1)C2,active: 50.1 µM,,
O=C(NC1CCCC1)N1CCN(c2ccc3nnc(-c4ccccc4)n3n2)CC1,"inconclusive: 50.1 µM [inhibitor, partial curve, poor fit]",,
Cc1nn(-c2ccccc2)c2c1C(C)N(CC1CN([S+](=O)([O-])C(C)C)C1)C2=O (stereo not drawn),,,inactive: -24.3%
Fc1ccc2nc(CO[C@H]3CN(Cc4cnc5ccccc5c4)C[C@H]3F)[nH]c2c1,"inconclusive: 39.8 µM [inhibitor, partial curve]",,
O=C(COc1ccccc1)N1CCN(C(=O)c2nnn3c2COC(c2ccc(Cl)cc2)C3)CC1 (stereo not drawn),"inconclusive: 44.7 µM [inhibitor, partial curve, poor fit]",,
COC[C@H]1NC(=O)CC[C@H]1C(=O)Nc1ccc2c(c1)OCCO2,"inconclusive: 56.2 µM [inhibitor, partial curve, poor fit]",,
CCCc1nc(NCc2c(F)ccc(OC)c2F)c2cnn(C)c2n1,"inconclusive: 35.5 µM [inhibitor, partial curve, poor fit]",,
CN1CCCN(S(=O)(=O)c2ccccc2Br)c2ccccc21,"inconclusive: 39.8 µM [inhibitor, partial curve, poor fit]",,
O=C(c1ccc2c(c1)OCO2)N1CCC2(CC(c3cccnc3)=NO2)C1 (stereo not drawn),"inconclusive: 50.1 µM [inhibitor, single point]",,
COc1ccccc1-c1cc(N2CCN(c3ccccn3)CC2)c2onc(C)c2n1,"inconclusive: 100 µM [inhibitor, single point]",,
COc1cccc(-c2noc(CC3CCN(C(=O)COc4cccc(C)c4)CC3)n2)c1,"inconclusive: 44.7 µM [inhibitor, partial curve, poor fit]",,
O=C1CCN([C@@H]2CCC[C@H]2O)c2cc3c(cc2CN1Cc1ccccc1)OCO3,,,inactive: -22.9%
Cc1noc(C)c1-c1cc2cc(CO)oc2c(NCC2CCOCC2)n1,active: 22.4 µM,,
O=C(NC1CCN(c2ccc3nnc(-c4ccccc4)n3n2)CC1)c1ccccc1Cl,"inconclusive: 50.1 µM [inhibitor, partial curve, poor fit]",,

SMILES,Potency,outcome,"activity change, negative = cytotoxicity"
O=S(=O)(N[C@H]1CO[C@H]2[C@@H]1OC[C@@H]2n1cc(-c2ccccn2)nn1)c1cccs1,"inconclusive: 126 µM [inhibitor, single point]",,
COc1ccc(Nc2n[nH]c(C(O)c3cccc(C(F)(F)F)c3)n2)cn1 (stereo not drawn),"inconclusive: 100 µM [inhibitor, partial curve, poor fit]",,
CC1(C(=O)NC2CCC2)CN(Cc2ccccc2)Cc2ccc(N3CCOCC3)nc21 (stereo not drawn),"inconclusive: 50.1 µM [inhibitor, partial curve, poor fit]",,
COCC1CN(C)CC12CCN(C(=O)COc1cccc(C)c1)CC2 (stereo not drawn),"inconclusive: 56.2 µM [inhibitor, partial curve, poor fit]",,
CC1=C[C@@H](CNCc2ccccn2)[C@H](C(C)C)C[C@H]1Cc1nnc(-c2ccccc2F)o1,"inconclusive: 44.7 µM [inhibitor, partial curve, poor fit]",,
O=C(c1ccn[nH]1)N1CCCCC1c1noc(COc2ccc(F)cc2)n1 (stereo not drawn),"inconclusive: 44.7 µM [inhibitor, partial curve]",,
COC(=O)N1CC(N2C(=O)c3c(c(C)nn3-c3ccccc3)C2C2CC2)C1 (stereo not drawn),"inconclusive: 50.1 µM [inhibitor, partial curve, poor fit]",,
CN(C)c1ncc2c(n1)C(C)(C(=O)NCCCn1ccnc1)CCC2 (stereo not drawn),"inconclusive: 15.8 µM [inhibitor, full curve]",,
Cc1cnc(CC2CCN(C(=O)COc3ccc(F)cc3)CC2)n1Cc1ccc(F)cc1,"inconclusive: 50.1 µM [inhibitor, partial curve, poor fit]",,
COc1ccc(C(=O)N2CCC3(CC2)OCC(C(=O)N2CCCC2)N3C(=O)c2ccc(F)cc2)cc1 (stereo not drawn),,,inactive: -15.3%
CN1c2cc(C(=O)Nc3ccc(F)c(F)c3)ccc2C(=O)N2CCCCCC21 (stereo not drawn),"inconclusive: 50.1 µM [inhibitor, partial curve, poor fit]",,
CC(C)c1noc(-c2ccn3c(CNC(=O)c4ccoc4)nnc3c2)n1,"inconclusive: 70.8 µM [inhibitor, partial curve, poor fit]",,
CCOc1cc(=O)n2c(c1C(=O)NCC1CCCCC1)CCCCC2,,,inactive: -10.3%
CSc1ccc(NC(=O)C2CCN(C(=O)c3ncn4c3COC(c3ccc(F)cc3)C4)CC2)cc1 (stereo not drawn),,,inactive: -2.47%
CN(C)c1ccc(C(=O)NCC2CCN(c3cc(-c4ccc(F)cc4)[nH]n3)CC2)cc1,"inconclusive: 39.8 µM [inhibitor, partial curve, poor fit]",,
Cc1cccc(NC(=O)Cn2cccc2-c2nc(-c3ccc4c(c3)OCO4)no2)c1,,,inactive: 0.161%
O=C(NCc1cccs1)c1nc(-c2ccc(F)cc2)c2cnccn12,"inconclusive: 39.8 µM [inhibitor, partial curve]",,
COc1ccc(-c2nc(C)nc3c2CN([S+](=O)([O-])c2cccc(OC)c2)CC3)cc1,"inconclusive: 50.1 µM [inhibitor, partial curve, poor fit]",,
COc1ccc(Nc2cnc3ccc(N(C)Cc4cccnc4)nn23)cc1,"inconclusive: 50.1 µM [inhibitor, partial curve, poor fit]",,
